The values below come from ChEMBL document CHEMBL4888484, “Replenishing the malaria drug discovery pipeline: Screening and hit evaluation of the MMV Hit Generation Library 1 (HGL1) against asexual blood stage Plasmodium falciparum ,using a nano luciferase reporter read-out” (2022).

Screen size: about 150,000 compounds; about 540 (0.36%) showed an effect of 50% or more. Some of the results follow.

In the experiment the test system is Plasmodium falciparum. Description: Primary screen in NF54 nanoGlo assay, in single point, at 2uM, 72h; a lower Z score goes with more inhibition. Particulars: timepoint 72 hour. Type of experiment: functional, Erythrocyte.
In the case of `CC(C)Cc1noc(C2(c3ccc(Br)cc3)CCOCC2)n1`, the “% Inhibition” value is on record as -15% and the Z score is reported as 3.07.
Turning to `CCNC(=O)C(=O)Nc1c(C)cccc1C`, the “% Inhibition” value is recorded as -12% and the Z score turned out to be 1.62.
On to `O=C(NCCNc1cnccn1)c1ccc(Br)o1`, for which the “% Inhibition” value was -15% and the Z score is 1.48.
As for `CN(Cc1ccccc1)C(=O)[C@H]1CCCN(Cc2ccc(Cl)cc2)C1`, the “% Inhibition” value is reported as 10% and the Z score is -1.25.
On to `COc1ccc(OCC(=O)NC2CCN(c3nc4c(s3)c(C)nn4-c3ccc(F)cc3)CC2)cc1`, for which the “% Inhibition” value is -2% and the Z score stood at 0.29.
`CCOCCNC(=O)c1ccc(-c2ncnn2C(C)C)cc1`: the “% Inhibition” value is -13% and the Z score was determined as 1.75.
Consider `COc1ccc(-c2noc(N3CCN(c4ccccc4F)CC3)n2)cc1OC`, for which the “% Inhibition” value came to 8% and the Z score was -1.29.
For `O=C(O)CCC1CCN(C(=O)c2ccc3c(c2)CCC3)CC1` the same measures were 9% and -1.13.
For `O=S(=O)(C1CC1)N1CC(n2cc(-c3ccccc3)nn2)C1` the same measures were -19% and 3.18.
For `CN(C)c1cnccc1NC(=O)Nc1cnn(CCF)c1` the same measures were 15% and -1.77.
For the compound `Cc1cc(C(=O)N[C@H]2[C@H](O)[C@H](O)C[C@@H]2c2ccc(C(F)(F)F)nc2)nn1C`, the “% Inhibition” value is given as 20% and the Z score is given as -2.3.
For the compound `CC1CC(C)CN(C(=O)NCCOC2CCCCCC2)C1` (centres undefined), the “% Inhibition” value is listed as -4% and the Z score was determined as 0.52.
Consider `O=C(NCC1CCOCC1)Nc1cccc2ccsc12`, for which the “% Inhibition” value is -5% and the Z score was 0.58.
For `Cc1sc(NC(=O)c2cccs2)c([C@@H](c2ccc(Cl)cc2)N2CCN(C)CC2)c1C` the same measures were 17% and -3.26.
With `C[C@H](OC(=O)CN1C(=O)c2ccccc2C1=O)C(=O)N1CCc2ccccc21`, the “% Inhibition” value was -13% and the Z score worked out at 1.34.
With `CCCN(C(=O)c1ccc(C)o1)[C@H]1CC(=O)N(C)C1=O`, the “% Inhibition” value is listed as -15% and the Z score worked out at 1.49.
The like results for `CCOC(=O)[C@H](C(C)C)N1CCC(C(=O)Nc2ccccc2)CC1` were, in that order, 8% and -0.95.
In the case of `CCC1Oc2ccccc2N(CC(=O)NCCCN2CC(C)CC(C)C2)C1=O` (centres undefined), the “% Inhibition” value is recorded as -3% and the Z score was determined as 0.55.
Take `COc1ccc(Cl)cc1N1CC[C@H](NC(=O)C2(C#N)CCCC2)C1`: the “% Inhibition” value is listed as -7% and the Z score was 1.12.
The like results for `N#Cc1ccc(N[C@H]2CCCN(CCO)C2=O)c(F)c1` were, in that order, -14% and 2.23.
On to `CCc1cnc(CNC(=O)N(CC)C2CC(C)(C)C2)s1`, for which the “% Inhibition” value was -4% and the Z score stood at 0.53.
As for `O=C(CN1CCc2cc(-c3ccccc3)oc2C1)N1CCOCC1`, the “% Inhibition” value was -13% and the Z score is given as 1.64.
With `O=C(NCCc1ccccc1)c1cccc2c1C(=O)N(C1CCCCC1)C2`, the “% Inhibition” value is reported as 16% and the Z score is -2.1.
For `O=C(NC(=Nc1ccccc1)Nc1ccccc1)c1ccc(Cl)c(Cl)c1` the same measures were -1% and 0.17.
For `Cc1noc(C)c1CCC(=O)N1C2CCC1CC(n1cccn1)C2` (centres undefined), the “% Inhibition” value is listed as -17% and the Z score stood at 2.2.
The like results for `COc1ccc(OC)c(CN[C@H]2CCCN(C)C2)c1` were, in that order, -6% and 0.96.
For the compound `C[C@@]1(O)CCN[C@@H](c2ccccc2)[C@@H]1NC(=O)c1ccc(F)cc1`, the “% Inhibition” value was -3% and the Z score was found to be 0.43.
For `CCc1nn(C)c(OC)c1CNC(=O)Nc1cccc(C)n1` the same measures were -2% and 0.24.
For the compound `CC(C)(C)n1ncnc1CNC(=O)NCCOc1ccc(C#N)cc1`, the “% Inhibition” value was 1% and the Z score is reported as -0.11.
Regarding `CC(C)(C)c1ccnc(N[C@H]2CO[C@H]3[C@@H]2OC[C@@H]3NC(=O)c2ccccc2)n1`, the “% Inhibition” value was 12% and the Z score was -1.35.
The like results for `CNC(=O)[C@@H]1C[C@H](Oc2ccccc2)CN1S(C)(=O)=O` were, in that order, -12% and 1.64.
Take `c1cnc(Nc2nc(-c3cccs3)cs2)nc1`: the “% Inhibition” value is on record as -9% and the Z score is 1.15.
As to `COc1ccc(Br)cc1CN1CCC[C@@H]1CN1CCCC1`, the “% Inhibition” value came to 1% and the Z score is recorded as -0.2.
Consider `COc1ncc(C(=O)NCCCn2ccnc2)cn1`, for which the “% Inhibition” value is -14% and the Z score came to 1.29.
In the case of `Cn1cc(CN(C(=O)Cn2cnc3ccccc3c2=O)C2CCCCC2)cn1`, the “% Inhibition” value is -15% and the Z score came to 1.41.
Turning to `CC[C@@H](C(=O)N1CC(Oc2ccccc2C)C1)N1Cc2ccccc2C1=O`, the “% Inhibition” value is reported as -15% and the Z score is recorded as 2.
As to `O=C(c1ccc2ccccc2c1)N1CCC[C@H]1c1nc2ccccc2s1`, the “% Inhibition” value was found to be 36% and the Z score is recorded as -1.
The like results for `Cc1nn(C)c(C)c1CCC(=O)N1CCN(C)Cc2ccccc21` were, in that order, -8% and 0.64.
`Cc1ccc(Cn2c(=O)c(C(=O)NCc3ccncc3)nn(-c3ccc(C)c(C)c3)c2=O)cc1`: the “% Inhibition” value is -15% and the Z score was 1.5.
The like results for `Cc1ccc(CN2C(=O)[C@@H]3C[C@@H](O)CN3C3(CN(C(C)C)C3)C2=O)o1` were, in that order, 26% and -2.97.
With `CCCc1nnsc1C(=O)N[C@@H]1COCC[C@@H]1OCc1c(C)noc1C`, the “% Inhibition” value is -4% and the Z score stood at 0.66.
For `CCc1nc(-c2ccc(-c3noc(-c4ccco4)n3)cc2)cs1`, the “% Inhibition” value is on record as -24% and the Z score is 2.45.

As a reminder, the % Inhibition is the drop in the measured response relative to a control, in per cent.
